# Experimental data from publication PMC4336329 (PLoS ONE, 2015).
# Screen size: about 310,000 compounds; about 14,000 (4.5%) showed an effect of 50% or more. Effects have a minus sign here. The list shows a part of the results.
# Biological target: human ether-à-go-go-related gene (hERG) potassium channel (human, UniProt Q12809)
# Experiment: primary screen, population patch clamp on CHO cells stably expressing hERG
# 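Also: peak tail current of the secondary pulse compared with the same well before compound.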
# Chain of human ether-à-go-go-related gene (hERG) potassium channel (Q12809 whole entry, looked up): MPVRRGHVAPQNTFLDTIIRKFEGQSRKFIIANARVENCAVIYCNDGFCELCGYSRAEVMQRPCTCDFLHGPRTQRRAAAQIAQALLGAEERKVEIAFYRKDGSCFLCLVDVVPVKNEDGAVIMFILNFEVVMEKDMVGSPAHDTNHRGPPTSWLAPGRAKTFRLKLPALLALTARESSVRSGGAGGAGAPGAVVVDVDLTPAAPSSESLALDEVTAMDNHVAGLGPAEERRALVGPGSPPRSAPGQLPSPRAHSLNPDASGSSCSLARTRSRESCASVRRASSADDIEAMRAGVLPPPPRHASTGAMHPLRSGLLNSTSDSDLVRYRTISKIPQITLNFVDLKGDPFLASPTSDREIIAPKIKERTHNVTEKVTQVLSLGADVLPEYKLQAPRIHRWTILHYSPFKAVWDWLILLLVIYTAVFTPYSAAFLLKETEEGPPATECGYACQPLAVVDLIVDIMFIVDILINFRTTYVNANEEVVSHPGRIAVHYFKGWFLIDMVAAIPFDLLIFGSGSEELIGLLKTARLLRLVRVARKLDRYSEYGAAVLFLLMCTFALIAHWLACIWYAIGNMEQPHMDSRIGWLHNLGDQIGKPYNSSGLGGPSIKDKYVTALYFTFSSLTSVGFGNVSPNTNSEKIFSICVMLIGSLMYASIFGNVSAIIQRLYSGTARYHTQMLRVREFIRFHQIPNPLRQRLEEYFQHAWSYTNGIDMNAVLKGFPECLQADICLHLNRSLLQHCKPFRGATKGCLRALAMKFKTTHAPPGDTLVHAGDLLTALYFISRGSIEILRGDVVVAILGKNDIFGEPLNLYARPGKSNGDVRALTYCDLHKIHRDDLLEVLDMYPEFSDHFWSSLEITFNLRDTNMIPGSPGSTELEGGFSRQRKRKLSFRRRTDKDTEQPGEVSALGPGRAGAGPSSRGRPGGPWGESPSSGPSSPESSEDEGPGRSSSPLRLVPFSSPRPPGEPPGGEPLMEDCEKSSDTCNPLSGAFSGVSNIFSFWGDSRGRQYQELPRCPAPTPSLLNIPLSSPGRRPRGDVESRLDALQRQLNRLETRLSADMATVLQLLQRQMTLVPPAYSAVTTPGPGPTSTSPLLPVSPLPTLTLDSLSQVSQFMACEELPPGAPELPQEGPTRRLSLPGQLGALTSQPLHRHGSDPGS
row,SMILES,"hERG current change (%, negative = inhibition) at 10uM [%]"
1,COc1ccccc1C(=O)n1nc(C)cc1C,6.01
2,CCOC(=O)c1csc(NC(=O)c2cc3ccccc3o2)n1,3.91
3,Cc1nc(Nc2ccccc2)sc1C(=O)c1ccc(F)cc1,15.9
4,CCOc1ccc(CN2CCCC(N3CCN(c4ccc(OC)cc4)CC3)C2)cc1 (stereo not shown),-64
5,CN1CCN(C(=O)c2ccccc2NC(=O)c2ccccc2)CC1,-22.5
6,c1ccc(-c2nnc(C(c3ccccc3)c3ccccc3)o2)cc1,6.86
7,CC(C)(Oc1ccc(Cl)cc1)C(=O)NCC(c1ccco1)N1CCCCC1 (stereo not shown),-20.2
8,COc1ccc(C2(O)CC3CCC(C2)N3c2cc(C)nc(-c3ccccc3)n2)cc1 (stereo not shown),-17.7
9,Cc1ccc(C(=O)Nc2ccc(C(=O)N3CCCCC3)cc2)o1,12.2
10,O=C(Nc1cccc(F)c1)Nc1ccnn1C1CCN(C(=O)c2ccccn2)CC1,14.2
11,Cc1ccc(S(=O)(=O)N2CCOCC2)cc1C(=O)OCC(=O)N(Cc1ccccc1)C(C)C,-14.5
12,Cc1ccc(S(=O)(=O)N2CCN(C(=O)COC(=O)CCOc3ccccc3C)CC2)cc1,-15.4
13,COc1ccccc1C(=O)Nc1ccnn1C1CCN(C/C=C/c2ccc(F)cc2)CC1,-76.6
14,O=C(CCc1ccccc1Cl)Nc1cc2c(cc1C(=O)O)OCCCO2,22.4
15,COc1ccc(-c2cc(C(=O)Nc3cc(C)nn3-c3ccccc3)no2)cc1,-4.63
16,CC1(C)Cc2ccccc2-c2nc3n(c(=O)c21)CCS3,5.97
17,C/C(=N\NC(=O)c1ccccc1O)c1ccc(Br)s1,11
18,O=C(O)C(=O)O.c1ccc(-c2ccccc2OCCCN2CCCC2)cc1,-65
19,O=C(CSc1cn(CC(=O)N2CCCCC2)c2ccccc12)NCC1CCCO1 (stereo not shown),0.31
20,Cc1ccc(Cc2c(C)nc3nc(SCC(=O)NCc4ccco4)nn3c2C)cc1,-20.6
21,COc1ccc(CNC(=O)C2CCN(C(=O)c3ccco3)CC2)cc1,-5.58
22,CC1(C)Cc2c(sc(NC(=O)c3ccccc3Cl)c2C(=O)O)CO1,15.8
23,COc1cccc2cc(CC(=O)c3ccc(C)cc3C)c(=O)oc12,11.6

row,SMILES,"hERG current change (%, negative = inhibition) at 10uM [%]"
1,O=C(CSc1nc2cc(Cl)ccc2c(=O)n1Cc1ccco1)Nc1ccc(S(=O)(=O)N2CCOCC2)cc1,-13.6
2,COc1cc(OC)c(NC(=O)Cc2cccs2)cc1Cl,1.14
3,Cc1ccc(C)c(NC(=O)CN(C)C(=O)c2ccc(S(=O)(=O)N(C)c3ccccc3)cc2)c1,-38.7
4,COc1ccccc1N1C(=NC(=O)C2CCCCC2)SC2CS(=O)(=O)CC21 (stereo not shown),-31.4
5,Fc1cccc(CNCCc2c[nH]c3ccccc23)c1.O=C(O)C(=O)O,-7.63
6,CCOC(=O)c1snc(-c2ccc(F)cc2)c1N,9.56
7,CC1CCCCC1NC(=O)CSc1nnc(COc2ccc(Cl)cc2)o1 (stereo not shown),0.225
8,O=[N+]([O-])c1ccc2c(c1)nnn2-c1ccccc1,14.3
9,CCCCn1c(SCC(=O)N2CCOCC2)nnc1-c1cccs1,-1.27
10,O=C(O)C(=O)O.c1cc2c(cc1CCNC1CCCCCC1)OCO2,-17.6
11,Cc1ccccc1NC(=O)COC(=O)CCc1nc2ccccc2c(=O)[nH]1,-3.53
12,COc1cc(/C=N/NC(N)=S)ccc1OCC(=O)Nc1ccc(C)c(C)c1,-11.4
13,Cc1ccc(C)c(Oc2ccc(S(=O)(=O)N3CCN(C)CC3)cn2)c1,-4.86
14,CN(C)CCCNC(=S)N(CCN(C)C)Cc1cc2cc3c(cc2[nH]c1=O)OCCO3,13.9
15,CCS(=O)(=O)c1nc(S(=O)(=O)c2ccc(C)cc2)c(NCCN2CCOCC2)s1,-9.86
16,O=C(O)C1CCCCC1C(=O)Nc1ccc(Cl)cc1Cl (stereo not shown),-2.61
17,COCCN(Cc1cccs1)S(=O)(=O)c1csc(C(N)=O)c1,-3.88
18,CC(CC(=O)O)NCC1COc2ccccc2O1 (stereo not shown),18.5
19,NCC(O)COCCC12CC3CC(CC(C3)C1)C2 (stereo not shown),-1.48
20,COC(=O)c1ccccc1C(=O)N1CCOCCN(C(=O)c2ccccc2C(=O)OC)CCOCC1,0.0748
21,Cc1cnc(C(=O)Nc2cc(S(=O)(=O)N3CCOCC3)ccc2N2CCN(C)CC2)cn1,-18.6
22,Br.Cc1ccc(C2Cc3cc(O)c(O)cc3CN2)cc1 (stereo not shown),11
23,CCOc1ccc2nc(NCCNS(=O)(=O)c3ccccc3)c(C#N)cc2c1,8.37

row,SMILES,"hERG current change (%, negative = inhibition) at 10uM [%]"
1,CC(C)(NC(=O)N1CCCC1)c1cccc(C(C)(C)NC(=O)N2CCCC2)c1,8.2
2,CC(C)(C)c1ccc(C(=O)Nc2cccc(C(=O)N3CCOCC3)c2)cc1,-47.4
3,O=C(COC(=O)c1cccc(Cl)c1)NC1CCCCCCC1,0.597
4,Cc1cccc(CNC(=O)CCCn2nc(C)c3c(C)n(-c4ccccc4)nc3c2=O)c1,-16.4
5,CN(CCc1ccccn1)C1CCCN(S(=O)(=O)c2ccccc2Cl)C1 (stereo not shown),-46.5
6,CCCCN(Cc1cc2cc(C)ccc2[nH]c1=O)C(=O)c1ccccn1,1.23
7,Cc1sc2nc(-c3ccccc3)[nH]c(=O)c2c1-c1ccccc1,9.43
8,CCOC(=O)c1ccccc1-c1csc(N)n1,27.1
9,CN(Cc1cccs1)C(=O)Cc1c[nH]c2ccccc12,-2.98
10,O=S(=O)(c1ccccc1)c1nc(-c2ccco2)oc1N1CCCCC1,-37.1
11,CCCN(CC(=O)Nc1ccccc1C)C(=O)c1cn2ccccc2n1,0.435
12,CC(C)C(C)(C#N)NC(=O)CSc1nc2scc(-c3ccco3)c2c(=O)n1-c1ccccc1 (stereo not shown),3.05
13,CCc1noc(C)c1C(=O)OCC(=O)c1ccccc1OC,-9.82
14,Cc1cc(C)nc(SCC(=O)Oc2ccc3oc(=O)cc(C)c3c2)n1,-4.65
15,N#C/C(=C\c1ccncc1)c1ccccn1,15
16,CCOP(=O)(Cc1ccc(C(=O)CC)o1)OCC,12.9
17,Cc1ccc(C)c2[nH]c(=O)c(CCNC(=O)c3cc4ccccc4o3)cc12,-0.302
18,COc1ccc(NC(=O)CNC(=O)Cc2ccccc2)cc1OC,13.7
19,COC(=O)c1cc(OC)c(OC)cc1NC(=O)CSc1ccc(C)cc1,0.827
20,C=C(C)CNC(=S)Nc1sc2c(c1C(=O)OCC)CC(C)(C)OC2,28.6
21,CCCN(CC(=O)Nc1ccccc1C)C(=O)C1CC(=O)N(c2ccc(CC)cc2)C1 (stereo not shown),-40.5
22,S=c1nc(C2CCCCC2)n(-c2ccccc2)[nH]1,15.6
23,COc1ccc(CN=C2NN=C(c3cccc(OC)c3)CS2)cc1,-38.7

row,SMILES,"hERG current change (%, negative = inhibition) at 10uM [%]"
1,COc1ccc(CCn2c(-c3cccc([N+](=O)[O-])c3)nc3nc4ccccc4nc32)cc1OC,5.13
2,Cc1cc(C)c2nc(N3CCC(C(=O)NCCCN4CCCC4=O)CC3)sc2c1,-25.5
3,CCOC(=O)c1csc(-c2sccc2Br)n1,-9.67
4,COc1ccc(OC)c2sc(Cl)nc12,-3.41
5,Cc1ccccc1-n1nc2c(c1NC(=O)c1cccs1)CS(=O)(=O)C2,-5.08
6,O=C1C(Cc2ccc(O)cc2)NC(=S)N1c1ccccc1 (stereo not shown),-3.5
7,O=S(=O)(NCc1csc(-c2cccnc2)n1)c1ccc(F)cc1,16.2
8,Cc1ccc(NC(=O)c2ccc(OCc3c(C)noc3C)cc2)nc1,-8.97
9,CC(C)NC(=O)C12CC3CC(C1)CC(C(=O)NC(C)C)(C3)C2,-16.8
10,CC(C)Cn1c(C(C)C)nc([N+](=O)[O-])c1S(=O)(=O)c1ccc(F)cc1,-15.4
11,Nn1c(Cc2ccccc2)n[nH]c1=S,8.55
12,O=C1CSC(=Nc2ccccc2Cl)N1,3.55
13,COc1ccc(COC(=O)c2sc3nc4n(c(=O)c3c2C)CCC4)cc1,-4.72
14,Cc1ccccc1CN1CCNC(=O)C1CC(=O)NCCN1CCCCC1=O (stereo not shown),17.7
15,Cc1cccc(N2C(=O)C3CCC(c4ccccc4)CC3C2=O)c1 (stereo not shown),-9.67
16,O=C(Nc1nc2ccccc2[nH]1)C1CCCC1,3.49
17,COC(=O)c1ccc(CC(=O)c2ccc(O)cc2O)o1,13.1
18,C#Cc1cccc(C(=O)N2CCCC(CCC(=O)NCc3ccccc3F)C2)c1 (stereo not shown),5.59
19,CC1Cc2ccccc2N1C(=O)CSc1nncs1 (stereo not shown),6.41
20,Cc1c(C(=O)O)oc2ccc(S(=O)(=O)N3CCCCC3C(=O)O)cc12 (stereo not shown),4.6
21,CCCCn1c(N)c(N(CC(C)C)C(=O)c2ccc(C)o2)c(=O)[nH]c1=O,14.7
22,ClC(Cl)(Cl)c1nc(N/N=C/c2ccncc2)c2ccccc2n1,33.2
